The other results are listed elsewhere or left out. At the low end of the ranking the order means little.
These sequences were tested against SIX1-Q177R homeodomain (UniProt Q15475) (assay: universal protein binding microarray). Details: Universal all-10-mer PBM (8x60K, AMADID 030236), 300 nM GST-tagged protein, Alexa Fluor 488 anti-GST; buffer, salt, pH and temperature not stated; high values mean tight binding; most listed sequences are background and not binding sites; double strand, one strand shown.

Row | Sequence | binding signal
1 | ATAAAGTG | 0.0427 E-score
2 | ACCGTTGC | 0.000345 E-score
3 | CCTTCACC | -0.116 E-score
4 | CACACACG | 0.248 E-score
5 | GCAGCTCA | -0.22 E-score
6 | TAACTATA | -0.127 E-score
7 | CTCCGGCA | -0.0702 E-score
8 | ATCCGTCA | -0.189 E-score
9 | AATAGGAC | -0.193 E-score
10 | CAGCACTC | -0.0681 E-score
11 | ACTGACCT | -0.148 E-score
12 | AAGGACGA | -0.172 E-score
13 | ACAGTGAT | -0.112 E-score
14 | AATGATGC | -0.314 E-score
15 | GACACCTA | 0.463 E-score
16 | AGCACCCC | 0.295 E-score
17 | AGACTACC | -0.0934 E-score
18 | GGCAGCGA | -0.0458 E-score
19 | GGTCTGAC | -0.0387 E-score
20 | GAAACATC | -0.139 E-score
21 | AGGTCCGA | -0.0105 E-score
22 | CTAGCTAG | 0.0144 E-score
23 | AGCGGGGG | 0.206 E-score
24 | ACTTGATG | -0.0408 E-score
25 | AGAAGATG | -0.307 E-score

Row | Sequence | binding signal
26 | TGGAACCA | -0.197 E-score
27 | ACAAGAAA | -0.24 E-score
28 | AGCTTGGG | -0.0165 E-score
29 | CGATTTCA | -0.155 E-score
30 | CAAGAAGA | -0.143 E-score
31 | AGCGCGAG | 0.146 E-score
32 | GATCCGGC | -0.00713 E-score
33 | GAAAGTCC | -0.357 E-score
34 | AACCTAAT | -0.166 E-score
35 | AGTCGACA | 0.104 E-score
36 | CGCTTAAA | -0.285 E-score
37 | CTCCCATC | -0.0346 E-score
38 | CGTGGCCA | -0.125 E-score
39 | ATCGTCGA | -0.164 E-score
40 | CGGAAACC | -0.0658 E-score
41 | CCTGCTTC | -0.0438 E-score
42 | ACAGGAAT | -0.0608 E-score
43 | CACTTGCG | 0.196 E-score
44 | ACGCCTCC | 0.0888 E-score
45 | CTGGCGTA | 0.0791 E-score
46 | GACAACGA | -0.0533 E-score
47 | ACGTAACG | -0.0654 E-score
48 | GCCGGAAA | -0.0573 E-score
49 | CAAAAAAC | -0.0186 E-score
50 | ATGTTAGA | -0.0915 E-score

Row | Sequence | binding signal
51 | CTCCCTCC | -0.00285 E-score
52 | GCTGATAA | -0.0257 E-score
53 | ATCCTCAG | -0.0088 E-score
54 | ATACCAGG | 0.135 E-score
55 | TCAATAAA | -0.31 E-score
56 | CAACCCGG | 0.0483 E-score
57 | CCTACTCG | 0.0473 E-score
58 | AACATTAA | -0.259 E-score
59 | GTCGTATA | -0.00498 E-score
60 | ACAAACCC | 0.0914 E-score
61 | AGGCTGTG | -0.0285 E-score
62 | CGGATGAA | -0.102 E-score
63 | AGGATAGG | 0.0175 E-score
64 | ATGTGACG | -0.154 E-score
65 | GTACGTCA | -0.0532 E-score
66 | CATGGAGG | 0.134 E-score
67 | GTGACCAC | 0.00314 E-score
68 | CCGCGCCC | 0.0688 E-score
69 | ACTTATCA | -0.155 E-score
70 | ACGAAGTA | 0.154 E-score
71 | AGGCACGG | -0.0932 E-score
72 | AAGAACAT | -0.252 E-score
73 | AGCCCGTA | -0.126 E-score
74 | GCTGTCCA | -0.144 E-score
75 | GTATCCAA | 0.292 E-score

Row | Sequence | binding signal
76 | CCTCCATA | -0.102 E-score
77 | AATTAGCG | -0.179 E-score
78 | CATGGCAG | -0.0998 E-score
79 | CCATGATC | -0.0299 E-score
80 | AGTAAAGG | 0.0156 E-score
81 | AATCACGA | -0.2 E-score
82 | GGGATCCA | 0.211 E-score
83 | CGGGTCTC | 0.207 E-score
84 | CCTCGGAA | 0.067 E-score
85 | CAAGTATG | -0.0537 E-score
86 | GACAGAGA | -0.198 E-score
87 | AATGACGG | -0.0674 E-score
88 | GACTTGTA | -0.0205 E-score
89 | AGATCAAT | -0.17 E-score
90 | CTCCCCTC | 0.091 E-score
91 | ATATTACA | 0.196 E-score
92 | GCGTCGAC | 0.0629 E-score
93 | ATTTCACA | 0.0432 E-score
94 | TAGGAAAA | -0.158 E-score
95 | CGCAAACC | 0.0622 E-score
96 | AACCGGTC | -0.2 E-score
97 | AGATCAAC | 0.14 E-score
98 | CGATCGGC | -0.211 E-score
99 | AACTACTT | -0.0542 E-score
100 | CAGATACG | -0.0788 E-score

Row | Sequence | binding signal
101 | CACTTTTA | -0.0615 E-score
102 | AGTCAGTG | 0.207 E-score
103 | AGAGTATA | 0.0593 E-score
104 | GTCTGCCA | -0.00898 E-score
105 | AAGACGCA | -0.231 E-score
106 | AAGTGGTG | 0.337 E-score
107 | GCGCTGAA | -0.264 E-score
108 | GTAGATAC | 0.0991 E-score
109 | AGGTCGAT | -0.017 E-score
110 | AATTAACC | 0.00677 E-score
111 | AGCAGGAC | -0.107 E-score
112 | ATTTGACA | 0.216 E-score
113 | GACCATGA | -0.0554 E-score
114 | GGCACTAC | 0.0372 E-score
115 | CCCCTCCG | 0.274 E-score
116 | ATGAGTAC | -0.123 E-score
117 | ACCTCCCC | 0.0648 E-score
118 | ACAACTGT | 0.0139 E-score
119 | AGTCGGAG | -0.0133 E-score
120 | ACCGCGCT | 0.0509 E-score
121 | CGAGCGCG | 0.0546 E-score
122 | GAAATCAA | -0.3 E-score
123 | GGGGGTAA | 0.354 E-score
124 | CGTGGATC | -0.0273 E-score
125 | GAATTAGC | -0.228 E-score

Row | Sequence | binding signal
126 | AAGAGATT | -0.229 E-score
127 | CAAGAAAA | -0.166 E-score
128 | ATGCAGCG | -0.275 E-score
129 | CCTTGCTA | -0.151 E-score
130 | GAGAGCAC | 0.0572 E-score
131 | CATCAACA | 0.0552 E-score
132 | GTTCTCGA | -0.262 E-score
133 | GTACACGA | 0.419 E-score
134 | CAAAATGG | -0.153 E-score
135 | AAGGCGGA | -0.12 E-score
136 | CCGCGACG | -0.0348 E-score
137 | GTATGGTA | 0.159 E-score
138 | TGACCTAA | -0.189 E-score
139 | CCGCCGCG | 0.108 E-score
140 | ATCTGTCC | -0.0269 E-score
141 | GCGCTTCA | -0.123 E-score
142 | CGCCCTTC | -0.0691 E-score
143 | ATATGGCC | -0.163 E-score
144 | ACACTTTG | 0.31 E-score
145 | GCTCGCTA | -0.102 E-score
146 | ACTCAAAA | 0.0954 E-score
147 | TAAAAGCA | -0.133 E-score
148 | ACGAACAC | 0.399 E-score
149 | ACCCCGCC | 0.271 E-score
150 | CCGGCACA | -0.0107 E-score

Row | Sequence | binding signal
151 | CCTTGGTC | -0.112 E-score
152 | CACCTGGC | 0.152 E-score
153 | GCTTACAC | 0.437 E-score
154 | CTCACGTC | -0.231 E-score
155 | AGTGCTAT | -0.00949 E-score
156 | AAGCTCTG | -0.246 E-score
157 | CGGTAGGC | 0.0525 E-score
158 | AAGCGATA | -0.131 E-score
159 | TCAGCGGA | -0.172 E-score
160 | CAACCTAG | -0.0416 E-score
161 | CACCTCCG | 0.344 E-score
162 | GACACATC | 0.0991 E-score
163 | GCGCGGAC | -0.0897 E-score
164 | ATTCCATA | -0.234 E-score
165 | ACTGAGAT | -0.0796 E-score
166 | AAAGACTC | -0.161 E-score
167 | AAATGGGA | -0.06 E-score
168 | CTGAAAAC | -0.0981 E-score
169 | AAATCCAC | 0.0134 E-score
170 | CAGGGTGG | 0.161 E-score
171 | ACCAGCAG | -0.0691 E-score
172 | CAAATGGG | 0.0352 E-score
173 | CTATCAAC | 0.0222 E-score
174 | GACTTAAA | -0.156 E-score
175 | AGCTTGAC | -0.0798 E-score

Row | Sequence | binding signal
176 | GTAATCAA | -0.0178 E-score
177 | CGGCGCAC | 0.11 E-score
178 | CATTAAAA | -0.127 E-score
179 | ACAGCAAC | -0.243 E-score
180 | CCCATAAA | -0.101 E-score
181 | AGTGCGCG | -0.0551 E-score
182 | AATGCCGA | -0.167 E-score
183 | TATCCATA | 0.0901 E-score
184 | GCGAGGAA | -0.13 E-score
185 | CTCATAAG | -0.0267 E-score
186 | AACACCCA | 0.456 E-score
187 | CGGTGTAA | 0.481 E-score
188 | AAGACCTA | -0.356 E-score
189 | CACTGGCC | 0.073 E-score
190 | TTGCTAAA | -0.202 E-score
191 | ACCAATCT | 0.0812 E-score
192 | GAAAGTTC | -0.171 E-score
193 | TAGGGCGA | -0.159 E-score
194 | AATATTCC | -0.079 E-score
195 | GGCAATGA | -0.064 E-score
196 | AACTTGTA | -0.127 E-score
197 | CACTAGGG | 0.201 E-score
198 | ATGCCGAA | -0.139 E-score
199 | GTAACATA | 0.196 E-score
200 | CGGGATCA | 0.269 E-score

Row | Sequence | binding signal
201 | CAATGGGA | -0.141 E-score
202 | AAGGAGGA | -0.0209 E-score
203 | ACCTGCAT | -0.0938 E-score
204 | AACATTTC | -0.258 E-score
205 | ACTGCAGT | -0.125 E-score
206 | AGTGTCTG | 0.302 E-score
207 | ATCCCCGC | 0.135 E-score
208 | GGGCAGAA | -0.0853 E-score
209 | AAGTGAAC | -0.0745 E-score
210 | CATATCAG | -0.0881 E-score
211 | GCTATGAA | -0.0465 E-score
212 | CGGACGGA | -0.201 E-score
213 | ACCAGTCG | -0.119 E-score
214 | ACTACAGG | 0.0176 E-score
215 | ATAGTTAG | -0.158 E-score
216 | AGGCCTGG | -0.0671 E-score
217 | CAGACACA | 0.19 E-score
218 | TGTGCCAA | -0.0753 E-score
219 | CATCGGCA | -0.131 E-score

From article PMC10668032
